Measurements taken from PubChem BioAssay AID540267 (National Center for Advancing Translational Sciences (NCATS), 2011).
The campaign covered roughly 340,000 compounds. About 530 (0.16%) were called active. The shares of active, inactive and inconclusive entries below differ from those in the screen. Cut-off read from the data, not from the text of the source: active = activity change below about -80%; inconclusive = between about -30% and that limit; inactive = weaker than that.

Assay: Small Molecules that selectively kill Giardia lamblia: qHTS;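 note: parasites exposed to compound for two days anaerobically before the ATP read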
Conditions: Giardia lamblia trophozoite viability; at 7.66 µM; stronger effect = lower value
Method in brief: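 Compounds were tested on trophozoites seeded at 100 cells/well and held 48 hrs at 37 deg C anaerobically. An ATP-based luminescent kit measured the remaining live cells.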
% is set by controls: 0 for no effect and ±100 for the full control effect.

Question: With `O=C(Nc1nccs1)c1cc([N+](=O)[O-])ccc1Cl` as the compound, how does the activity change read?
Answer: Its activity change is inconclusive: -58.1% [inhibitor].

Question: With `O=S1(=O)CCC(NC(=S)N2CCCCCC2)C1` (centres undefined) as the compound, how does the activity change read?
Answer: The activity change was inconclusive: -34.3% [inhibitor].

Question: Which activity change does the source give for `COc1ccc(-c2nc(-c3ccc(NC(=O)c4ccc(Br)o4)cc3)no2)cc1OC` here?
Answer: The activity change was inactive: -2.11%.

Question: For `CC(C)(O)CN(C(=O)C(c1ccccc1)c1ccccc1)C1CCCCC1`, which activity change is on record?
Answer: Its activity change is inactive: -1.97%.

Question: With `Cc1cccc(-c2n[nH]c(=S)n2/N=C/c2ccco2)c1` as the compound, how does the activity change read?
Answer: Its activity change is inconclusive: -39.8% [inhibitor].

Question: With `Cc1cccc(CNC(=O)Cc2csc3ccccc23)c1` as the compound, how does the activity change read?
Answer: Its activity change is inactive: 27.5%.

Question: For `Cn1cc(Cl)c(C(=O)Nc2nc3ccc([N+](=O)[O-])cc3s2)n1`, which activity change is on record?
Answer: The activity change was inconclusive: -31.1% [inhibitor].

Question: For `COc1ccc(N(C(=O)c2ccc(S(=O)(=O)N3CCOCC3)cc2)C2C=CS(=O)(=O)C2)cc1` (centres undefined), which activity change is on record?
Answer: The activity change was inactive: 38.3%.

Question: For `COc1ccc2cc3cc(C(=O)Nc4ccccc4N4CCN(C)CC4)oc3nc2c1`, which activity change is on record?
Answer: Its activity change is active: -86.8%.

Question: For `C=CCOC(=O)/C(=C/c1ccco1)NC(=O)/C=C/c1ccccc1`, which activity change is on record?
Answer: The activity change was inactive: -4.89%.

Question: With `Cc1cc(O)ccc1N1C(=O)c2cccc3cc([N+](=O)[O-])cc(c23)C1=O` as the compound, how does the activity change read?
Answer: The activity change was inconclusive: -49.5% [inhibitor].

Question: For `NC(=O)c1c(NC(=O)c2ccncc2)sc2c1CCCC2`, which activity change is on record?
Answer: The activity change was inconclusive: -34.4% [inhibitor].

Question: For `O=C(Nc1nnc(COc2ccc(F)cc2)s1)Nc1ccccc1F`, which activity change is on record?
Answer: The activity change was inconclusive: -34.6% [inhibitor].

Question: Which activity change does the source give for `COc1ccccc1C(=O)NS(=O)(=O)c1ccc(C)cc1` here?
Answer: The activity change was inconclusive: -37.3% [inhibitor].

Question: With `CCN1CCN(C(=O)c2ccc(Cl)c(S(=O)(=O)N(C)c3ccccc3)c2)CC1` as the compound, how does the activity change read?
Answer: The activity change was inconclusive: -31.2% [inhibitor].

Question: Which activity change does the source give for `Cc1ccc(S(=O)(=O)N2CCN(c3ccc([N+](=O)[O-])c4cccnc34)CC2)cc1` here?
Answer: Its activity change is inconclusive: -37.6% [inhibitor].

Question: Which activity change does the source give for `O=C(Cc1ccccc1)N/N=C/c1ccc([N+](=O)[O-])s1` here?
Answer: Its activity change is active: -90.9%.

Question: With `COc1ccc(OC)c(NCc2cccn2-c2nnc(N3CCC(C)CC3)s2)c1` as the compound, how does the activity change read?
Answer: Its activity change is inactive: -7.88%.

Question: Which activity change does the source give for `O=C(Nc1cccnc1Cl)c1ccc(Cl)c([N+](=O)[O-])c1` here?
Answer: Its activity change is inconclusive: -34.9% [inhibitor].

Question: Which activity change does the source give for `CCCCC1=CC2=C(c3ccco3)C(=O)C(C)(OC(=O)c3ccc(OC)cc3)C(=O)C2=CN1c1ccccc1` (centres undefined) here?
Answer: The activity change was inactive: 9.73%.

Question: For `CCc1nnc(NC(=O)[C@@H](NS(=O)(=O)c2ccc3c(c2)OCCO3)C(C)C)s1`, which activity change is on record?
Answer: The activity change was inactive: -4.96%.

Question: For `Cc1cc(N2CCC(C)CC2)c(F)cc1[N+](=O)[O-]`, which activity change is on record?
Answer: The activity change was inactive: -2.64%.

Question: With `c1coc(-c2nc3cc4ccccc4cc3nc2-c2ccco2)c1` as the compound, how does the activity change read?
Answer: Its activity change is inconclusive: -57.8% [inhibitor].

Question: Which activity change does the source give for `COCCn1c(C)cc(C(=O)COC(=O)c2cccc(O)c2)c1C` here?
Answer: Its activity change is inconclusive: -58.9% [inhibitor].

Question: With `CCC1CCCCN1CCNC(=O)C1CCCN(S(=O)(=O)c2cccc3nsnc23)C1` (centres undefined) as the compound, how does the activity change read?
Answer: The activity change was inconclusive: -32.6% [inhibitor].

Question: For `NS(=O)(=O)c1cccc(NC(=O)Cn2nc(C(=O)O)c3ccccc3c2=O)c1`, which activity change is on record?
Answer: Its activity change is inconclusive: -31% [inhibitor].

Question: With `O=C1c2ccccc2C(=O)C1c1nccc2ccccc12` as the compound, how does the activity change read?
Answer: Its activity change is inconclusive: -57.5% [inhibitor].

Question: With `CCOc1ccccc1C(=O)NCC(=O)N1CCC(C)CC1` as the compound, how does the activity change read?
Answer: The activity change was inactive: 0.0906%.

Question: Which activity change does the source give for `CCOC(=O)c1ccc(Nc2nc(N)c3cc(OC)c(OC)cc3n2)cc1` here?
Answer: Its activity change is inconclusive: -72.6% [inhibitor].

Question: Which activity change does the source give for `COc1ccc2c(c1)c(C(C)=O)c(C)n2CCc1ccc(OC)c(OC)c1` here?
Answer: Its activity change is inconclusive: -30.5% [inhibitor].

Question: Which activity change does the source give for `Cc1ccsc1/C=N/NC(=O)c1nnn(-c2nonc2N)c1-c1ccc2c(c1)OCO2` here?
Answer: The activity change was inconclusive: -37.9% [inhibitor].

Question: Which activity change does the source give for `C(=C\c1nc2ccccc2[nH]1)/c1ccccc1` here?
Answer: The activity change was inconclusive: -66.5% [inhibitor].

Question: With `O=[N+]([O-])c1cccc(-c2nnc(-c3ccccc3)o2)c1` as the compound, how does the activity change read?
Answer: Its activity change is inconclusive: -30.7% [inhibitor].

Question: For `COc1ccccc1NS(=O)(=O)c1cc(NC(=O)C2CCCC2)ccc1N1CCOCC1`, which activity change is on record?
Answer: Its activity change is inactive: -14.2%.

Question: Which activity change does the source give for `COc1ccc(C(=O)Nc2cc(C)on2)cc1` here?
Answer: Its activity change is inconclusive: -34.4% [inhibitor].

Question: With `O=C(c1ccc(F)cc1)N1CCCC(C(=O)N2CCc3ccccc3C2)C1` (centres undefined) as the compound, how does the activity change read?
Answer: Its activity change is inconclusive: -38.6% [inhibitor].

Question: Which activity change does the source give for `COC(=O)c1cccc(NC(=O)CSc2nc(=O)cc(N)n2-c2ccccc2)c1` here?
Answer: Its activity change is inactive: -5.91%.

Question: With `O=C(Cn1cnc2c(OCc3ccccc3)ncnc21)NCCCc1ccccc1` as the compound, how does the activity change read?
Answer: The activity change was inconclusive: -48.6% [inhibitor].

Question: With `CN1C(=O)C2C=CC1C1C(=O)N(c3ccccc3)C(=O)C21` (centres undefined) as the compound, how does the activity change read?
Answer: Its activity change is inactive: -2.1%.

Question: Which activity change does the source give for `CC1(C(=O)N2CC3(CC(c4cccc(NC(=O)COc5ccc(Cl)cc5)c4)=NO3)C[C@@H]2C(N)=O)CC1` (some centres undefined) here?
Answer: Its activity change is inactive: -20.3%.

Question: For `c1cnn(Cc2cnc(N3CCOCC3)s2)c1`, which activity change is on record?
Answer: Its activity change is inconclusive: -43% [inhibitor].

Question: For `COC(=O)c1ccc2nc(-c3ccc4c(c3)OCO4)cn2c1`, which activity change is on record?
Answer: Its activity change is inconclusive: -37% [inhibitor].

Question: Which activity change does the source give for `O=C(COC(=O)c1cccc(N2C(=O)C3CC=CCC3C2=O)c1)c1ccccc1` (centres undefined) here?
Answer: Its activity change is inconclusive: -30.6% [inhibitor].

Question: Which activity change does the source give for `Cc1ccc(NC(=S)N/N=C/c2ccc([N+](=O)[O-])s2)cc1` here?
Answer: The activity change was inconclusive: -76.2% [inhibitor].

Question: For `CCCC(=O)Nc1ccc2c(c1)nc(CN1CCN(C(C)=O)CC1)n2C`, which activity change is on record?
Answer: The activity change was inconclusive: -39.8% [inhibitor].

Question: For `Oc1ccc(-c2cnc(-c3ccc(O)cc3)nc2)cc1`, which activity change is on record?
Answer: Its activity change is inconclusive: -60.6% [inhibitor].

Question: For `CC(=O)Nc1nc(-c2cc([N+](=O)[O-])cs2)cs1`, which activity change is on record?
Answer: The activity change was inconclusive: -52.1% [inhibitor].

Question: For `Cc1cc(=O)oc2c3c(cc(OCC(=O)NCCC(=O)N[C@@H](C)C(=O)O)c12)OC(C)(C)CC3`, which activity change is on record?
Answer: Its activity change is inconclusive: -33.9% [inhibitor].

Question: Which activity change does the source give for `Cc1c(Cl)cccc1NC(=O)CCCn1cnc([N+](=O)[O-])n1` here?
Answer: Its activity change is inconclusive: -54.5% [inhibitor].
